Reference: patent publication US20250051407A1, “De novo designed sequence-specific DNA binding proteins” (University of Washington, priority 2023, published 2025)

System: 13 unique dsDNA targets
Assay: All-by-all yeast surface display screen of DBP design hits
Assay type: binding
Method: And an all-by-all screen of DBP design hits to 13 unique dsDNA targets was performed (FIG. 4, table 2). […] To try to understand these observed binding preferences, each tested DNA sequence was threaded onto each design complex model at all possible base pair alignments, the alternative complex models were relaxed with Rosetta™, and the model with the most favorable Rosetta™ ΔΔG was selected.
Saccharomyces cerevisiae EBY100 strain cultures were grown in C-Trp-Ura medium supplemented with 2% (w/v) glucose. For induction of expression, yeast cells were centrifuged at 6,000 g for 1 min and resuspended in SGCAA medium supplemented with 0.2% (w/v) glucose at the cell density of 1×10^7 cells per ml and induced at 30° C. for 16-24 h. […]
For yeast display characterization of individual designs, including competition assays, DNA sequences encoding the proteins of interest were purchased as Integrated DNA Technologies (IDT) E-Blocks™, transformed into yeast cells, and incubated in 96 well culture plates. […] For each individual sample, gating of the expression population was performed using the CytoFlow™ Gaussian Mixture Model and the ratio of SAPE channel intensity to FITC channel intensity (binding signal/expression signal) was calculated for all gated expression events of the sample.

B1: DBP85: designed DNA-binding protein, SEQ ID NO: 44, DNA target A (protein)
chain: TLSQLTPQEMRIARLASEGMPNREIATRLFISPRTVEWHLRRAMRKLGVRNRTQMARRIDTRL
For B1, the “Number of the 13 tested DNA target sequences preferentially bound” value (1 μM dsDNA with avidity, including designed target sequence) was “less than 3” and the “Binding specificity versus design models” value (all-by-all screen with Rosetta-predicted motifs) was “bound with specificity closely consistent with the design models”.
